Five molecules from patent US20250026852A1 (Chugai, published 2025) can be followed below.

One experiment deals with T1, soluble human IL-6R (human, UniProt P08887 20-357).
T1 construct: also called hsIL-6R; recombinant human IL-6R
T1 sequence: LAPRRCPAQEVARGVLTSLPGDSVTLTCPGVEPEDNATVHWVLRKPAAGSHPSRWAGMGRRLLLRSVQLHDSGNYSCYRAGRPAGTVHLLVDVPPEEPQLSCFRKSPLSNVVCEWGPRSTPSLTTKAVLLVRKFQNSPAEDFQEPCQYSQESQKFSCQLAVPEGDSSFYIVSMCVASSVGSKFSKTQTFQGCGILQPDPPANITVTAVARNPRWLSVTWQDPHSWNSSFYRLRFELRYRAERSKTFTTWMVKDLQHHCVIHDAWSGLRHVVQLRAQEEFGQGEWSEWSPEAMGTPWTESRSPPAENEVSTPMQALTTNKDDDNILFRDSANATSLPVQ
In words: BLI (Octet), in the same way as in Example 3. Background: Biolayer interferometry detects binding as a change in optical thickness at a sensor tip.

A further experiment deals with T2, human CD3ed-Fc (human).
T2 construct: Biotinylated in culture by BirA; also called biotin-labeled protein containing human CD3 epsilon and human CD3 delta linked to a human antibody constant region; CD3 heterodimer fused with the antibody constant region
T2 chain 1: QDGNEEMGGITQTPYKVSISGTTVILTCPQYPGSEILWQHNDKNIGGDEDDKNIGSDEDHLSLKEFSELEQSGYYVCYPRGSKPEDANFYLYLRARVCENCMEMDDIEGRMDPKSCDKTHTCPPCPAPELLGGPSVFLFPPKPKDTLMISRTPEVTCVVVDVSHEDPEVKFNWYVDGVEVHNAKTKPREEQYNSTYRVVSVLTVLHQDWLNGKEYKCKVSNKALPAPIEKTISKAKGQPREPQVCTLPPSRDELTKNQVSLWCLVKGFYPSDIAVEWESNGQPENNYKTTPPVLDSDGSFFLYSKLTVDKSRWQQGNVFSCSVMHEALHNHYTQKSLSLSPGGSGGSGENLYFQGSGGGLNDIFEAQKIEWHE
T2 chain 2: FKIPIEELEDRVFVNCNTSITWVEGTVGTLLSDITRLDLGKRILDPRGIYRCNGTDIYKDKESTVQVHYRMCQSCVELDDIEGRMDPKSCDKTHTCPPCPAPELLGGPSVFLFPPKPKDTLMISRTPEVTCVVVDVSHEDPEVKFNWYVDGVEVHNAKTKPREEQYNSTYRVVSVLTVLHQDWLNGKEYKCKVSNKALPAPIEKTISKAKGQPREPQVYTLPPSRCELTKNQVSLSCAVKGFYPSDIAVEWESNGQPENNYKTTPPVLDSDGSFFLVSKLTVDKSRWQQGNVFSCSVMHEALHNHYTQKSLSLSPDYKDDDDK
The experiment is described as follows: BLI (Octet RED), human CD3ed-Fc on the sensor, protease-untreated molecule as analyte. On the procedure: The protease concentration was set to 25 nM, and Octet RED (Pall ForteBio Corp.) was used in the assay.
Next, the CD3 binding evaluation of VHH released by protease treatment was conducted in the same way as in Example 3.

B1: 20A11-G1m/VK1-39-k0MT (other)
heavy: EVQLVESGGGLVQPGGSLRLSCAASGSVFKINVMAWYRQAPGKGRELVAGIISGGSTSYADSVKGRFTISRDNAKNTLYLQMNSLRPEDTAVYYCAFITTESDYDLGRRYWGQGTLVTVSS[gap - human IgG1 constant region]
light: DIQMTQSPSSLSASVGDRVTITCRASQSISSYLNWYQQKPGKAPKLLIYAASSLQSGVPSRFSGSGSGTDFTLTISSLQPEDFATYYCLQFDSYPLTFGGGTKVEIKRTVAAPSVFIFPPSDEQLKSGTASVVCLLNNFYPREAKVQWKVDNALQSGNSQESVTEQDSKDSTYSLSSTLTLSKADYEKHKVYACEVTHQGLSSPVTKSFNRGEC
notes: IgG antibody-like molecule
With B1, the binding result with soluble human IL-6R is on record as “binds”.

B2: bC3edL1R1N164H01-G1mISHI01/VK1-39-k0MT (other)
heavy: QVQLVESGGGLVQPGGSLRLSCAASGFTFDVYGMSWVRHSPGKGLEWVSTINWNGGSTYYAESMKGRFTISRDNAKNTVYLQMNSLKPEDTAVYYCAKFAPWDGDMEWGQGTQVTVSGGSGLSGRSDNHGSSGGSS[gap - human IgG1 constant region]
light: DIQMTQSPSSLSASVGDRVTITCRASQSISSYLNWYQQKPGKAPKLLIYAASSLQSGVPSRFSGSGSGTDFTLTISSLQPEDFATYYCLQFDSYPLTFGGGTKVEIKRTVAAPSVFIFPPSDEQLKSGTASVVCLLNNFYPREAKVQWKVDNALQSGNSQESVTEQDSKDSTYSLSSTLTLSKADYEKHKVYACEVTHQGLSSPVTKSFNRGEC
notes: protease-untreated
Turning to B2, in the experiment with human CD3ed-Fc, the binding result is “no binding”.

B3: bC3edL1R1N160H01-G1mISHI01/VK1-39-k0MT (other)
heavy: QVQLVESGGGLVQPGGSLRLSCAASGFTFNHCWMYWVRQAPGKGLEWVSVINTDGGSAYYADSVKGRFTISRDNAKNTLYLQMNSLKSEDTAVYYCARDWAPLVDYYYGMDYWGKGTLVTVSGGSGLSGRSDNHGSSGGSS[gap - human IgG1 constant region]
light: DIQMTQSPSSLSASVGDRVTITCRASQSISSYLNWYQQKPGKAPKLLIYAASSLQSGVPSRFSGSGSGTDFTLTISSLQPEDFATYYCLQFDSYPLTFGGGTKVEIKRTVAAPSVFIFPPSDEQLKSGTASVVCLLNNFYPREAKVQWKVDNALQSGNSQESVTEQDSKDSTYSLSSTLTLSKADYEKHKVYACEVTHQGLSSPVTKSFNRGEC
notes: protease-untreated
For the molecule B3, the binding result with human CD3ed-Fc is reported as “no binding”.

B4: 20A11-G1m/VL1-44-lamL (other)
heavy: EVQLVESGGGLVQPGGSLRLSCAASGSVFKINVMAWYRQAPGKGRELVAGIISGGSTSYADSVKGRFTISRDNAKNTLYLQMNSLRPEDTAVYYCAFITTESDYDLGRRYWGQGTLVTVSS[gap - human IgG1 constant region]
light: QSVLTQPPSASGTPGQRVTISCSGSSSNIGSNTVNWYQQLPGTAPKLLIYSNNQRPSGVPDRFSGSKSGTSASLAISGLQSEDEADYYCGTWDGGVTGVVFGGGTKLTVLGQPKAAPSVTLFPPSSEELQANKATLVCLISDFYPGAVTVAWKADSSPVKAGVETTTPSKQSNNKYAASSYLSLTPEQWKSHRSYSCQVTHEGSTVEKTVAPTECS
notes: IgG antibody-like molecule; VHH 20A11 in place of VH
Take B4: the binding result in the experiment with soluble human IL-6R is “binds”.

B5: bC3edL1R1N161H01-G1mISHI01/VK1-39-k0MT (other)
heavy: QVQLVESGGGLVQPGGSLRLSCAASGFPFDNYVMSWVRQAPGKGLEWISAISWNGGSTYYAESMKGRFTISRDNAKSTLYLQMNSLKSEDTAVYYCAKEPRVYYSGSPDYWGQGTQVTVSGGSGLSGRSDNHGSSGGSS[gap - human IgG1 constant region]
light: DIQMTQSPSSLSASVGDRVTITCRASQSISSYLNWYQQKPGKAPKLLIYAASSLQSGVPSRFSGSGSGTDFTLTISSLQPEDFATYYCLQFDSYPLTFGGGTKVEIKRTVAAPSVFIFPPSDEQLKSGTASVVCLLNNFYPREAKVQWKVDNALQSGNSQESVTEQDSKDSTYSLSSTLTLSKADYEKHKVYACEVTHQGLSSPVTKSFNRGEC
notes: protease-untreated
On to B5, for which, in the experiment with human CD3ed-Fc, the binding result is “no binding”.
